Laboratory results from article PMC9163697 (2022).

Biological target: T1, IKKγ(150–272) (UniProt Q9Y6K9 150-272)
T1 chain: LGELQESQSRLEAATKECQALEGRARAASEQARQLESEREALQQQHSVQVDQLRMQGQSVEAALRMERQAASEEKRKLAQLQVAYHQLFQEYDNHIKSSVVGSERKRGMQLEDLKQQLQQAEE
Assay: ITC

B1: WT vFLIP([…]) (domain or fragment)
chain: not shown
  Kd: 307 nM
